# According to PubChem BioAssay AID488969 (Vanderbilt High Throughput Screening Facility, 2010):
# Whole data set: some 110,000 compounds, median “z-score” near -0.1, cut for the highest 2% near 2. The list shows a part of the results. The source made the active and inactive calls.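 The calls were made as follows: active = z-score in the third read window above 3 or below -3; inactive = the rest.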
# Target: Metabotropic glutamate receptor 8 (Rattus norvegicus) (UniProt P70579)
# Assay: rat mGluR8 modulators via GIRK flux, primary screen, cell-based, thallium flux, HTS (AID 488969)
# Conditions: HEK293 rat mGluR8, GIRK (G protein-gated inwardly rectifying potassium channel) thallium flux, FluoZin2; at 10 µM; stronger effect = higher value; submaximal glutamate (EC20) added with thallium
# UniProt P70579, sequence (P70579 whole entry, looked up): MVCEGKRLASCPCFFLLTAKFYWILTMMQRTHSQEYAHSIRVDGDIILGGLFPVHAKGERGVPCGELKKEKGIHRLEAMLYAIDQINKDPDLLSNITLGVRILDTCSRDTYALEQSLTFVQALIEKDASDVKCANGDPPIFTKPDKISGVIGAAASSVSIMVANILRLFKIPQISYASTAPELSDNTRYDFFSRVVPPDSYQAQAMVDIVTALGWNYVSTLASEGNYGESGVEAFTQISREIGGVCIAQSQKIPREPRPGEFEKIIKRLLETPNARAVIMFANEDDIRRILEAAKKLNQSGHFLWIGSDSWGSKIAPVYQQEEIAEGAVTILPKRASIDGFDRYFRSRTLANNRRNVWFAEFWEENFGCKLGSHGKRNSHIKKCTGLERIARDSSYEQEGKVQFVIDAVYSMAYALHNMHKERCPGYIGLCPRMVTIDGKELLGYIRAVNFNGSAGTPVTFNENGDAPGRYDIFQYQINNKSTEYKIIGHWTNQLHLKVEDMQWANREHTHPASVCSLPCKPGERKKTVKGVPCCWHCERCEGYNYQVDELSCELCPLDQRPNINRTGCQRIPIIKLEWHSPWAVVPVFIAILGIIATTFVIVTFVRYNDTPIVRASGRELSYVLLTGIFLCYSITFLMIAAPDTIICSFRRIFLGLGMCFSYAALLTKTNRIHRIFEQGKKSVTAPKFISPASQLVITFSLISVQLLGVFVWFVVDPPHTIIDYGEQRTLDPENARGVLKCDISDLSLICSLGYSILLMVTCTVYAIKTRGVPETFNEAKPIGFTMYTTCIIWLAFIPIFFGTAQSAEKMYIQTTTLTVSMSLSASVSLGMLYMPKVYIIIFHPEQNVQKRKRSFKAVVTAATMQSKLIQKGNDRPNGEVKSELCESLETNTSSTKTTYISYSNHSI
row,SMILES,z-score
1,CCn1c(O)c(N=NC2=NC(=O)CS2)c2ccccc21,0.217
2,CCc1nc(SCC(=O)N2c3ccccc3Sc3ccccc32)c2ccccc2n1,-1.01
3,CCS(=O)(=O)N1Cc2ccccc2CC1C(=O)Nc1nnc(SCc2c(Cl)cccc2Cl)s1 (stereo unspecified),0.776
4,CCn1c2c(c(=N)c3c1CCC3)CCC2,0.0976
5,CC(C)C(C)NC(=O)CSc1nc2scc(-c3ccco3)c2c(=O)n1-c1ccccc1 (stereo unspecified),-0.536
6,CC(=O)Nc1ccc(NC(=S)Nc2ccccc2)cc1,-0.0688
7,O=C(C1CCCO1)N1CCN(c2ccc(F)cc2)CC1 (stereo unspecified),0.282
8,CC(=O)OC1c2ccccc2C(=O)N1c1ccccc1C (stereo unspecified),-0.33
9,Cc1cc(C)nc(SCc2cc(=O)c(OC(=O)c3ccc(Cl)c([N+](=O)[O-])c3)co2)n1,-1.05
10,Cc1cccc(NC(=O)C(C)OC(=O)c2ccccc2NS(=O)(=O)c2cc(C)c(C)c([N+](=O)[O-])c2)c1 (stereo unspecified),0.656
11,Cc1cc(NC(=O)CSc2ccc3nnc(-c4cccnc4)n3n2)no1,-0.114
12,COC(=O)CSc1ncnc2c1sc1nc(-c3ccco3)c3c(c12)CC(C)(C)OC3,-1.09
13,O=C(Oc1cc2oc(=O)c3c(c2cc1Cl)CCCC3)c1ccco1,-0.428
14,COc1ccc(-c2nnc(SCc3cc(C)ccc3C)n2N)cc1,0.0225
15,O=C(CSc1ncnc2c1oc1ccccc12)Nc1nc2ccccc2s1,-0.00764
16,CCOc1ccc(NC(=O)CCN2CCN(S(=O)(=O)c3cc(Cl)ccc3OC)CC2)cc1,0.00548
17,Nc1nc(NCC2CCCO2)nc(NCC2CCCO2)c1[N+](=O)[O-] (stereo unspecified),0.00341
18,CCC(=O)N(Cc1ccc2c(c1)OCO2)Cc1cc2cc(OC)ccc2[nH]c1=O,-0.638
19,CCNC(=O)NC(=O)CSc1nc2ccccc2n1CCOC,0.0954
20,C=CCn1c(SCC(=O)Nc2ccc(-c3nc4ccc(C)cc4s3)cc2)nnc1-c1ccncc1,-0.459
21,COC(=O)c1cc(NC2c3ccccc3C(=O)N2CCN2CCOCC2)cc(C(=O)OC)c1 (stereo unspecified),-0.535
22,C=CCn1c(COc2cccc3ccc(C)nc23)nnc1SCC(=O)O,0.0574
23,CCC(Oc1ccccc1)C(=O)N1CCN(c2ccccn2)CC1 (stereo unspecified),0.0108

row,SMILES,z-score
1,O=C(NCc1cccnc1)c1ccc(NC(=O)c2ccco2)cc1,0.0702
2,CC1Oc2ccccc2C=C1/C=N/NC(=O)c1ccccc1O (stereo unspecified),0.0521
3,CC(C)(C)c1ccc(/C=C/C(=O)Nc2ccncc2)cc1,0.0642
4,COc1cccc(CNC(=O)C2CCCN(S(=O)(=O)c3c(C)[nH]c(=O)[nH]c3=O)C2)c1 (stereo unspecified),0.119
5,Cc1ccc(S(=O)(=O)/N=C2/NC(=O)/C(=C/c3ccc(Br)o3)S2)cc1,0.711
6,Cc1csc(NC(=O)Cc2nn(C)c(=O)c3ccccc23)n1,1.76
7,Cc1cc(C)c(C#N)c(N2CCCC2)n1,-0.89
8,Cc1ccn2cc(-c3cccc(NC(=O)c4ccccc4)c3)nc2c1,-0.542
9,O=C(c1ccccc1)N(C1=NCCCCS1)c1ccccc1,0.444
10,CC(=O)Nc1ccccc1C(=O)N1CCc2ccccc21,1.03
11,O=S(=O)(NCc1ccco1)c1cccc(S(=O)(=O)N2CCOCC2)c1,-0.532
12,Cc1ccccc1N(Cc1ccccc1F)S(C)(=O)=O,-0.198
13,C/C(=N\NC(=O)CC1(C)OCCO1)c1cccs1,-0.101
14,CC(C)C(=O)NCCc1c[nH]c2ccccc12,0.147
15,Fc1ccc(-n2c(Cc3ccccc3)nnc2SCc2nc(-c3cccs3)no2)cc1,-0.663
16,Cc1cc(C)nc(-n2c(Nc3ccccc3)cc(=O)c3c(C)n(-c4ccccc4)c(=O)nc32)n1,-0.0336
17,Cc1cc(C)cc(NC(=O)C2CCCN2/C=C/C(=O)C(F)(F)F)c1 (stereo unspecified),0.0572
18,COc1ccc(/C=N/NC(=O)c2ccc(O)cc2)cc1CN1CCCc2ccccc21,-0.0751
19,CSC(=O)NC12CC3CC(CC(C)(C3)C1)C2,active: 8.08
20,Cc1cc(Cl)cc(Br)c1OCCNCC(C)O (stereo unspecified),0.644
21,O=C(/C=C/c1cccc(Cl)c1)N1CCC(Cc2ccccc2)CC1,-0.321
22,CCOC(=O)c1ccc(N2C(=O)CC(N(Cc3ccc4c(c3)OCO4)C(=O)Nc3ccccc3)C2=O)cc1 (stereo unspecified),-0.102
23,COc1cccc(OC)c1C(=O)N1CCN(S(=O)(=O)c2ccc(C)cc2)CC1,-0.127

row,SMILES,z-score
1,NCC12CC3CC(CC(O)(C3)C1)C2,0.878
2,O=C(Cc1ccc(-n2c(=O)c3ccccc3n(Cc3cccc([N+](=O)[O-])c3)c2=O)cc1)NCC1CCCO1 (stereo unspecified),-0.374
3,CCN(CC)CCNC(=O)CS(=O)Cc1nc(-c2ccc(Cl)cc2)oc1C (stereo unspecified),2.41
4,O=C(NC(=S)Nc1ccc(N2CCOCC2)cc1)c1cccc([N+](=O)[O-])c1,0.169
5,CC(C)(C)C(=O)NC1(C(F)(F)F)N=C2SCCN2C1=O (stereo unspecified),-0.137
6,CCOC(=O)Cc1c(C)nc2c(-c3ccccc3OC)c(C)nn2c1C,-0.0115
7,Cc1ccc(NC(=O)c2cc(-c3ccc(C)o3)nc3ccccc23)nc1,-0.637
8,COc1c(F)c(F)c(-c2csc(N)n2)c(F)c1F,0.207
9,N#Cc1cc2c(=O)n3ccccc3nc2n(CCCn2ccnc2)c1=N,-0.881
10,CCCn1c(SCC(=O)Nc2nc(C)cs2)nnc1-c1cccnc1,0.337
11,CCCCc1c(C)c2ccc(OCC(C)=O)cc2oc1=O,0.489
12,O=C1CC(N2CCC(c3nc4ccccc4o3)CC2)C(=O)N1c1ccc(Cl)c(C(F)(F)F)c1 (stereo unspecified),-0.416
13,CC1(C)Cc2ccccc2C2CC(O)C(=O)N21 (stereo unspecified),-0.731
14,CCOC(=O)c1c(C)n(C)c2ccc(OC)c(NC(=O)CCN3CCSCC3)c12,-0.773
15,CCCC(=O)Nc1c(O)c2ccccc2[nH]c1=O,0.261
16,N#Cc1cccc(C(c2nnnn2C2CCCC2)N2CCCCCC2)c1 (stereo unspecified),-0.823
17,COc1cccc(NC(=S)NCc2ccco2)c1,0.531
18,c1ccc(N2CCN(c3ccc4nncn4n3)CC2)nc1,-0.348
19,CCOC(=O)CSC1=C(C#N)C(=O)NC(c2ccc(OC)c(OC)c2)S1 (stereo unspecified),active: 6.39
20,COc1cc(C2NC(=S)NC(c3ccccc3)=C2C(C)=O)cc(Cl)c1OCC(=O)O (stereo unspecified),-0.175
21,O=C(O)C1C2C=CC(O2)C1C(=O)NCCC1=CCCCC1 (stereo unspecified),0.536
22,COc1cccc(N(CC(=O)NCCSc2ccccn2)S(C)(=O)=O)c1,0.257
23,CCOC(=O)N1CCN(C(=O)c2ccc(CN(c3ccccc3)S(C)(=O)=O)cc2)CC1,0.0908

row,SMILES,z-score
1,O=C(c1ccncc1)c1nccn1-c1ccccn1,0.347
2,COC(CCN(C)C)(c1ccccc1)c1ccccc1,-1.21
3,CCc1ccc(/C=N/NC(=O)C(=O)NCCCN2CCOCC2)cc1,-0.174
4,O=C(COC(=O)CNS(=O)(=O)c1ccccc1)Nc1ccc(Cl)cn1,-0.294
5,OC(CN1c2ccccc2Sc2ccccc21)Cn1nnc2ccccc21 (stereo unspecified),-1.19
6,COc1cc(S(=O)(=O)NC2CCCCC2)ccc1F,-0.383
7,COc1cc(S(=O)(=O)Nc2c(C)cc(C)cc2C)ccc1Cl,0.0266
8,CC(C)(C)NC(=O)C(=O)NNC(=O)c1ccc(C(C)(C)C)cc1,active: 5.3
9,CCc1nnc(NC(=O)CN2C(=O)c3ccccc3S2(=O)=O)s1,-0.0336
10,CCOC(=O)C1=C(CNCc2ccccc2Cl)NC(=O)NC1c1ccc2c(c1)OCO2 (stereo unspecified),0.278
11,N#Cc1c(-c2ccccc2)nc(N2CCOCC2)[nH]c1=O,-1.42
12,CC(C)N(Cc1nc(-c2ccc(Cl)cc2)no1)C(=O)C(c1ccccc1)c1ccccc1,-0.258
13,CC(=O)c1cc2c(cc1NC(=O)c1ccc(C)cc1)OCO2,0.935
14,CCOC(=O)/C(C#N)=N/Nc1ccc(S(=O)(=O)N2CCc3ccccc32)cc1,-0.374
15,CC(Sc1nnc(-c2cccnc2)n1-c1ccccc1)C(=O)NCc1ccc2c(c1)OCO2 (stereo unspecified),-0.153
16,COC(=O)c1cccc(NC(=O)/C(=C\c2ccccc2)NC(=O)c2ccccc2Cl)c1,-0.15
17,Nc1c(C(=O)c2ccc(F)cc2)oc2ccccc12,-0.245
18,Cc1nc2ccccc2c(=O)n1NS(C)(=O)=O,-0.245
19,CC(=O)Nc1ccc(NC(=O)c2ccccc2N(C)S(C)(=O)=O)cc1,0.366
20,COCc1cc(C)nc(Nc2cc(C)ccc2C)c1C#N,-0.116
21,c1csc(CNc2ncnc3sccc23)c1,-0.257
22,c1ccc(Nc2nc3ccccc3[nH]2)nc1,-0.125
23,CCNC(=S)N1CCN(c2ccc([N+](=O)[O-])cc2)CC1,0.99

row,SMILES,z-score
1,COc1ccc(C)cc1NC(=O)C(C)N(c1ccc(C)cc1)S(C)(=O)=O (stereo unspecified),-0.357
2,C=CCN(C(=O)CCC(=O)O)C1CC(=O)N(c2ccc(OC)cc2)C1=O (stereo unspecified),0.193
3,Cc1cccc(OCC(=O)NC(=S)N2CCCc3ccccc32)c1,active: 7.99
4,CC(c1nnc(SCC(=O)N2CCc3ccccc32)n1-c1ccc(Cl)cc1)N(C)C (stereo unspecified),-0.315
5,CCOC(=O)c1sc(NC(=O)CSc2nnc(-c3ccco3)n2CC)c(C(=O)OCC)c1C,-0.967
6,CN(C)c1nc(SCc2ccc(Cl)cc2)nc2c1CCCC2,-0.153
7,Cc1ccccc1-c1nc2sc(-c3ccccc3)cc2c(=O)o1,0.00593
8,CCC(=O)Nc1ccc(C(=O)OCc2ccccc2Cl)cc1,0.488
9,CC(=O)N(Cc1ccco1)C1(C(=O)NC2CCCC2)CCCCC1,-1.43
10,CC(=O)C1=C(NC(=O)c2ccccc2F)C[C@@H]2[C@H]1C2(C)C,0.568
11,CCN1C(=O)/C(=C\N2CCCCCC2)SC1=S,-0.306
12,O=C(CCSc1ccccc1)Nc1nc2c(s1)COc1ccccc1-2,-0.419
13,Cc1nc(CCNC(=O)Cc2ccc(F)cc2)cs1,0.29
14,COCCn1c(SCc2cccnc2)nnc1-c1c[nH]c2ccccc12,-0.163
15,CCCCNS(=O)(=O)c1ccc(OC)c(Cl)c1Cl,-0.317
16,Cn1c(SCc2ccc(Cl)cc2Cl)nc(C(F)(F)F)cc1=O,-0.551
17,CCOC(=O)C1=C(C)NC(C)=C(C(=O)OCC)C1c1nc2ccccc2[nH]1,0.241
18,CC12CC(c3ccccc3O1)C(C(=O)N1CCOCC1)C(=O)N2 (stereo unspecified),-0.461
19,O=C(CSc1nc2ccccc2s1)Nc1cc(S(=O)(=O)N2CCOCC2)ccc1O,-0.511
